# Measurements: the supplement of paper PMC8728848
# Some of the results follow.
# Tests used:
# Test in all cases: glycan array binding signal (z-score within array); higher = stronger binding
# Details in all cases: glycan notation: IUPAC condensed, linker removed; mutation: E41A
# Fuc(a1-2)Gal = molecular target: Fuc(a1-2)Gal
# Outline: (§1)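 From the Consortium for Functional Glycomics database, 3228 arrays were curated, keeping only those whose protein sequence was available. Binding is given as a within-array Z-score averaged across arrays sharing a protein sequence and across linkers. Negative Z-scores can be read as non-binding.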
# Fuc(a1-2)Gal(b1-3)GalNAc = molecular target: Fuc(a1-2)Gal(b1-3)GalNAc
# Outline: as §1
# [1] = molecular target: Fuc(a1-2)Gal(b1-3)GalNAc(a1-3)[Fuc(a1-2)]Gal(b1-4)Glc
# Outline: as §1
# [2] = molecular target: Fuc(a1-2)Gal(b1-3)GalNAc(a1-3)[Fuc(a1-2)]Gal(b1-4)GlcNAc
# Outline: as §1
# [3] = molecular target: Fuc(a1-2)Gal(b1-3)GalNAc(b1-3)Gal
# Outline: as §1
# [4] = molecular target: Fuc(a1-2)Gal(b1-3)GalNAc(b1-3)Gal(a1-4)Gal(b1-4)Glc
# Outline: as §1
# [5] = molecular target: Fuc(a1-2)Gal(b1-3)GalNAc(b1-4)[Neu5Ac(a2-3)]Gal(b1-4)Glc
# Outline: as §1
# Fuc(a1-2)Gal(b1-3)GlcNAc = molecular target: Fuc(a1-2)Gal(b1-3)GlcNAc
# Outline: as §1
# [6] = molecular target: Fuc(a1-2)Gal(b1-3)GlcNAc(b1-2)Man(a1-3)[Fuc(a1-2)Gal(b1-3)GlcNAc(b1-2)Man(a1-6)]Man(b1-4)GlcNAc(b1-4)GlcNAc
# Outline: as §1
# [7] = molecular target: Fuc(a1-2)Gal(b1-3)GlcNAc(b1-2)Man(a1-3)[Fuc(a1-2)Gal(b1-3)GlcNAc(b1-2)Man(a1-6)]Man(b1-4)GlcNAc(b1-4)[Fuc(a1-6)]GlcNAc
# Outline: as §1
# [8] = molecular target: Fuc(a1-2)Gal(b1-3)GlcNAc(b1-3)Gal(b1-4)Glc
# Outline: as §1
# [9] = molecular target: Fuc(a1-2)Gal(b1-3)GlcNAc(b1-3)GalNAc
# Outline: as §1
# [10] = molecular target: Fuc(a1-2)Gal(b1-3)GlcNAc(b1-3)[Fuc(a1-2)Gal(b1-3)GlcNAc(b1-6)]GalNAc
# Outline: as §1
# [11] = molecular target: Fuc(a1-2)Gal(b1-3)GlcNAc(b1-3)[Gal(b1-4)GlcNAc(b1-6)]Gal(b1-4)Glc
# Outline: as §1
# [12] = molecular target: Fuc(a1-2)Gal(b1-3)GlcNAc(b1-3)[Neu5Ac(a2-6)Gal(b1-4)GlcNAc(b1-6)]Gal(b1-4)Glc
# Outline: as §1
# [13] = molecular target: Fuc(a1-2)Gal(b1-3)GlcNAc6S
# Outline: as §1
# [14] = molecular target: Fuc(a1-2)Gal(b1-3)[Fuc(a1-4)]GlcNAc
# Outline: as §1
# [15] = molecular target: Fuc(a1-2)Gal(b1-3)[Fuc(a1-4)]GlcNAc(b1-2)Man(a1-3)[Fuc(a1-2)Gal(b1-3)[Fuc(a1-4)]GlcNAc(b1-2)Man(a1-3)]Man(b1-4)GlcNAc(b1-4)GlcNAc
# Outline: as §1
# [16] = molecular target: Fuc(a1-2)Gal(b1-3)[Fuc(a1-4)]GlcNAc(b1-2)Man(a1-3)[Fuc(a1-2)Gal(b1-3)[Fuc(a1-4)]GlcNAc(b1-2)Man(a1-6)]Man(b1-4)GlcNAc(b1-4)[Fuc(a1-6)]GlcNAc(b1-4)[Fuc(a1-6)]GlcNAc
# Outline: as §1
# [17] = molecular target: Fuc(a1-2)Gal(b1-3)[Fuc(a1-4)]GlcNAc(b1-3)[Fuc(a1-3)[Gal(b1-4)]GlcNAc(b1-6)]Gal(b1-4)Glc
# Outline: as §1
# [18] = molecular target: Fuc(a1-2)Gal(b1-3)[Fuc(a1-4)]GlcNAc(b1-3)[Gal(b1-4)GlcNAc(b1-6)]Gal(b1-4)Glc
# Outline: as §1
# [19] = molecular target: Fuc(a1-2)Gal(b1-4)Fuc(a1-3)]GlcNAc(b1-2)Man(a1-3)[Fuc(a1-2)Gal(b1-4)[Fuc(a1-3)]GlcNAc(b1-2)Man(a1-6)]Man(b1-4)GlcNAc(b1-4)GlcNAc
# Outline: as §1
# Fuc(a1-2)Gal(b1-4)Glc = molecular target: Fuc(a1-2)Gal(b1-4)Glc
# Outline: as §1
# Fuc(a1-2)Gal(b1-4)Glc6S = molecular target: Fuc(a1-2)Gal(b1-4)Glc6S
# Outline: as §1
# Fuc(a1-2)Gal(b1-4)GlcNAc = molecular target: Fuc(a1-2)Gal(b1-4)GlcNAc
# Outline: as §1
# [20] = molecular target: Fuc(a1-2)Gal(b1-4)GlcNAc(b1-2)Man
# Outline: as §1
# [21] = molecular target: Fuc(a1-2)Gal(b1-4)GlcNAc(b1-2)Man(a1-3)[Fuc(a1-2)Gal(b1-4)GlcNAc(b1-2)Man(a1-6)]Man(b1-4)GlcNAc(b1-4)GlcNAc
# Outline: as §1
# [22] = molecular target: Fuc(a1-2)Gal(b1-4)GlcNAc(b1-2)Man(a1-3)[Fuc(a1-2)Gal(b1-4)GlcNAc(b1-2)Man(a1-6)]Man(b1-4)GlcNAc(b1-4)[Fuc(a1-6)]GlcNAc
# Outline: as §1
# [23] = molecular target: Fuc(a1-2)Gal(b1-4)GlcNAc(b1-2)[Fuc(a1-2)Gal(b1-4)GlcNAc(b1-4)]Man(a1-3)[Fuc(a1-2)Gal(b1-4)GlcNAc(b1-2)Man(a1-6)]Man(b1-4)GlcNAc(b1-4)GlcNAc
# Outline: as §1
# [24] = molecular target: Fuc(a1-2)Gal(b1-4)GlcNAc(b1-3)Gal(b1-4)GlcNAc
# Outline: as §1
# [25] = molecular target: Fuc(a1-2)Gal(b1-4)GlcNAc(b1-3)Gal(b1-4)GlcNAc(b1-2)Man(a1-3)[Fuc(a1-2)Gal(b1-4)GlcNAc(b1-3)Gal(b1-4)GlcNAc(b1-2)Man(a1-6)]Man(b1-4)GlcNAc(b1-4)GlcNAc
# Outline: as §1
# [26] = molecular target: Fuc(a1-2)Gal(b1-4)GlcNAc(b1-3)Gal(b1-4)GlcNAc(b1-3)Gal(b1-4)GlcNAc
# Outline: as §1
# [27] = molecular target: Fuc(a1-2)Gal(b1-4)GlcNAc(b1-3)GalNAc
# Outline: as §1
# [28] = molecular target: Fuc(a1-2)Gal(b1-4)GlcNAc(b1-3)[Fuc(a1-2)Gal(b1-4)GlcNAc(b1-6)]GalNAc
# Outline: as §1
# [29] = molecular target: Fuc(a1-2)Gal(b1-4)GlcNAc(b1-3)[Fuc(a1-3)[Gal(b1-4)]GlcNAc(b1-6)]Gal(b1-4)Glc
# Outline: as §1
# [30] = molecular target: Fuc(a1-2)Gal(b1-4)GlcNAc(b1-6)GalNAc
# Outline: as §1
# [31] = molecular target: Fuc(a1-2)Gal(b1-4)GlcNAc6S
# Outline: as §1
# [32] = molecular target: Fuc(a1-2)Gal(b1-4)[Fuc(a1-3)]GlcNAc
# Outline: as §1
# [33] = molecular target: Fuc(a1-2)Gal(b1-4)[Fuc(a1-3)]GlcNAc(b1-2)Man(a1-3)[Fuc(a1-2)Gal(b1-4)[Fuc(a1-3)]GlcNAc(b1-2)Man(a1-6)]Man(b1-4)GlcNAc(b1-4)[Fuc(a1-6)]GlcNAc
# Outline: as §1
# [34] = molecular target: Fuc(a1-2)Gal(b1-4)[Fuc(a1-3)]GlcNAc(b1-2)[Fuc(a1-2)Gal(b1-4)[Fuc(a1-3)]GlcNAc(b1-4)]Man(a1-3)[Fuc(a1-2)Gal(b1-4)[Fuc(a1-3)]GlcNAc(b1-2)Man(a1-6)]Man(b1-4)GlcNAc(b1-4)GlcNAc
# Outline: as §1
# [35] = molecular target: Fuc(a1-2)Gal(b1-4)[Fuc(a1-3)]GlcNAc(b1-3)Gal(b1-4)[Fuc(a1-3)]GlcNAc
# Outline: as §1
# [36] = molecular target: Fuc(a1-2)Gal(b1-4)[Fuc(a1-3)]GlcNAc(b1-3)Gal(b1-4)[Fuc(a1-3)]GlcNAc(b1-3)Gal(b1-4)[Fuc(a1-3)]GlcNAc
# Outline: as §1
# [37] = molecular target: Fuc(a1-2)Gal(b1-4)[Fuc(a1-3)]GlcNAc(b1-3)GalNAc
# Outline: as §1
# [38] = molecular target: Fuc(a1-2)Gal(b1-4)[Fuc(a1-3)]GlcNAc(b1-3)[Neu5Ac(a2-6)Gal(b1-4)GlcNAc(b1-6)]Gal(b1-4)Glc
# Outline: as §1
# [39] = molecular target: Fuc(a1-2)Gal3S(b1-4)GlcNAc
# Outline: as §1
binder,measurement,setting,value
CVN-E41G (protein) MHHHHHHENLYFQSGNFSQACYNSAIQGSVLTSTCIRTNGGYNTSSIDLNSVIANVDGSLKWQGSNFIETCRNTQLAGSSELAAECKTRAQQFVSTKINLDDHIAAIDGTLKYE,glycan array binding signal (z-score),Fuc(a1-2)Gal,-0.151
same,glycan array binding signal (z-score),Fuc(a1-2)Gal(b1-3)GalNAc,-0.207
same,glycan array binding signal (z-score),[1],-0.198
same,glycan array binding signal (z-score),[2],-0.16
same,glycan array binding signal (z-score),[3],0.084
same,glycan array binding signal (z-score),[4],-0.141
same,glycan array binding signal (z-score),[5],-0.172
same,glycan array binding signal (z-score),Fuc(a1-2)Gal(b1-3)GlcNAc,-0.224
same,glycan array binding signal (z-score),[6],0.445
same,glycan array binding signal (z-score),[7],0.677
same,glycan array binding signal (z-score),[8],-0.154
same,glycan array binding signal (z-score),[9],0.097
same,glycan array binding signal (z-score),[10],0.091
same,glycan array binding signal (z-score),[11],-0.169
same,glycan array binding signal (z-score),[12],-0.168
same,glycan array binding signal (z-score),[13],-0.051
same,glycan array binding signal (z-score),[14],-0.228
same,glycan array binding signal (z-score),[15],0.053
same,glycan array binding signal (z-score),[16],0.571
same,glycan array binding signal (z-score),[17],-0.223
same,glycan array binding signal (z-score),[18],-0.08
same,glycan array binding signal (z-score),[19],0.18
same,glycan array binding signal (z-score),Fuc(a1-2)Gal(b1-4)Glc,-0.206
same,glycan array binding signal (z-score),Fuc(a1-2)Gal(b1-4)Glc6S,-0.072
same,glycan array binding signal (z-score),Fuc(a1-2)Gal(b1-4)GlcNAc,-0.234
same,glycan array binding signal (z-score),[20],-0.09
same,glycan array binding signal (z-score),[21],0.4
same,glycan array binding signal (z-score),[22],0.904
same,glycan array binding signal (z-score),[23],0.764
same,glycan array binding signal (z-score),[24],-0.201
same,glycan array binding signal (z-score),[25],-0.132
same,glycan array binding signal (z-score),[26],0.013
same,glycan array binding signal (z-score),[27],-0.19
same,glycan array binding signal (z-score),[28],-0.149
same,glycan array binding signal (z-score),[29],-0.187
same,glycan array binding signal (z-score),[30],-0.135
same,glycan array binding signal (z-score),[31],0.063
same,glycan array binding signal (z-score),[32],-0.215
same,glycan array binding signal (z-score),[33],0
same,glycan array binding signal (z-score),[34],0.441
same,glycan array binding signal (z-score),[35],-0.148
same,glycan array binding signal (z-score),[36],0.107
same,glycan array binding signal (z-score),[37],-0.136
same,glycan array binding signal (z-score),[38],-0.163
same,glycan array binding signal (z-score),[39],-0.225
